PubChem BioAssay (NCI)
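Cells were grown in 96-well plates and exposed to each compound for 48 hours at five concentrations; endpoints were interpolated linearly between bracketing concentrations, or set to the highest concentration if not reached. The concentration for 50% growth inhibition is given as GI50. TGI denotes the concentration required for complete inhibition of growth.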

Test system: NCI-H322M lung
Assay: NCI tumour cell line growth inhibition, 48 h

Compound | GI50 [µM] | TGI [µM]
COc1csc(/C=N/NC(=O)c2[nH]c3ccc(Br)cc3c2-c2ccccc2)c1 | 0.145 | > 100
CCOC(=O)c1sc(N/N=C(\C)c2ccc3c(c2)Nc2ccccc2S3)nc1C | 10.4 | 31.2
